# The whole screen tested about 150,000 compounds, of which about 540 (0.36%) showed an effect of 50% or more. The list shows a part of the results.
# Test system: Plasmodium falciparum
# Assay: Primary screen in NF54 nanoGlo assay, in single point, at 2uM, 72h; a lower Z score goes with more inhibition
# Assay type: functional, Erythrocyte
# Details: timepoint 72 hour
Compound,% Inhibition [%],Z score
CCCNC(=O)CNc1ccc(F)cc1CS(C)(=O)=O,-9,0.93
Oc1cc(CNCCc2nccs2)nc2c(F)cccc12,-8,1.14
CC(C)CN(C(=O)CC#N)c1ccc(C(F)(F)F)cc1,0,-0.06
CC(=O)c1ccc(-c2ccc(C(=O)NCc3nc4ccccc4[nH]3)o2)cc1,-8,0.82
O=C([C@@H]1CC=CCC1)N1CCC(Oc2cccc(F)c2)(C(=O)O)CC1,-1,0.21
C[C@@H](C(N)=O)N1CCc2[nH]nc(-c3cccc4ccccc34)c2C1,-4,0.55
Nc1c2c(-c3ccc(F)cc3)nc(N3CCN(c4ccccc4)CC3)nc2nn1-c1ccccc1,-3,0.33
O=C(Nc1ccc(F)cc1)c1c(-c2ccc(Cl)cc2)nc2n1CCS2(=O)=O,30,-0.02
CCCn1ncnc1[C@H](C)NC(=O)c1ccon1,0,0.06
CCC1CCC(C(=O)NC2(C(N)=O)CCCCC2)O1 (stereo not drawn),-11,1.53
Cn1nncc1NC(=O)N1Cc2cccnc2N2CCC[C@@H]2C1,9,-0.94
Fc1ccccc1N1CCN(c2c3c(nc4ccc(Cl)cc24)CCC3)CC1,5,-0.7
Cc1csc(NC(=O)CCN2C(=O)CCC2=O)n1,6,-0.95
Cc1noc([C@H](C)N(C)c2nc3c(s2)c(C)nn3C)n1,-10,1.91
O=C(c1ccoc1)N1CCC(n2nccn2)CC1,18,-2.01
CCCNC(=O)[C@@H](NC(=O)c1cccc(C)c1)C1CCN(C(=O)CC(C)(C)C)CC1,-6,1.03
CCC(C)NC(=O)C1CCCN(c2nnc(C)c3c(C)n(-c4ccc(Cl)cc4)nc23)C1 (stereo not drawn),-9,1.41
Cc1cc(NC(=O)N2CCCC[C@@H]2CCC(=O)OC(C)(C)C)no1,0,0.02
COCc1nc(C(=O)N(CC(F)(F)F)c2nc(C)cs2)cs1,-10,1.35
CC(C)[C@H]1CCCN(C(=O)NCc2ccc(=O)[nH]n2)C1,-4,0.56
COc1c(C)cnc(Cn2ccn3nc(-c4ccccc4Cl)cc3c2=O)c1C,-4,0.7
CCN(CC)c1ncccc1CNc1ncccc1C#N,10,-1.39
Cc1cc(C(=O)N[C@H]2CCN(Cc3csc(C)n3)C[C@@H]2O)nc(N)n1,8,-1.42
CC(C)c1nn(-c2ccccc2)c(Oc2ccccc2F)c1CN(CC1CC1)C(=O)c1cccc(F)c1,-2,0.18
O=C(NCc1cccs1)Nc1cccc(Cn2nc3ccccn3c2=O)c1,-11,0.96
O=C(NCc1ccccn1)[C@@H]1CNc2ccccc21,1,-0.21
COc1ccc(CCc2nc(NC(=O)c3ccco3)n[nH]2)cc1,-3,0.36

Compound,% Inhibition [%],Z score
Cc1n[nH]c(C)c1CCc1n[nH]c(=O)n1-c1c(C)noc1C,-2,0.49
COCc1nc(CCN2CCCC2=O)n(C2Cc3ccccc3C2)n1,-7,0.61
O=C(NC1CCc2ccccc21)C1CCCO1 (stereo not drawn),-2,0.34
O=C(NC1C2CCOC2C12CCC2)c1ccnc(N2CCCC2)n1 (stereo not drawn),7,-1.3
CN(CCN(C)C1CCCC1)C(=O)c1csc(N)n1,-1,0.25
COCCN1C(=O)CC(CC(=O)N2CCCCC2COC)(c2cccc(OC)c2)C1=O (stereo not drawn),-17,2.46
COC(=O)c1nc(NC(=O)c2cc3cc(F)ccc3n2C)sc1-c1ccccc1OC,-11,1.38
COc1ccc(CN2CCC(c3ncncc3C)CC2)cn1,6,-0.56
O=C1C2C3C=CC(C3=C3CCCCC3)C2C(=O)N1c1ccccc1C(F)(F)F (stereo not drawn),5,-0.62
CCN(CC)c1n[nH]c(NCc2cnn(CC)c2)c1C#N,-7,1.26
Cc1ccc(C(=O)Nc2ccc(-n3cncn3)nc2)s1,-16,1.85
Cc1nc(C2(C)CCN(C(=O)CCC(=O)n3nc(C)c4ccccc43)CC2)no1,-5,0.65
COc1cccc(CN2CCC3(CCC(=O)N(CCc4c[nH]cn4)C3)CC2)c1,-1,0.14
Cc1ccccc1CC(=O)N1CCC[C@H](c2nc(O)c3nnn(Cc4ccc(F)cc4)c3n2)C1,-15,1.32
CCOc1ccc(-c2nn3c(nc2=O)-c2ccccc2N[C@@H]3C(=O)O)cc1,0,-0.03
OCc1ccc(Cl)c(NCc2csc(-c3ccccn3)n2)c1,2,-0.27
O=C(Cc1cncs1)N1CCC[C@@H]1CF,-3,0.49
Cn1cc(C(NC(=O)N2CCOC(CO)C2)C(F)(F)F)cn1 (stereo not drawn),-13,1.69
COc1ccc(S(=O)(=O)N2CCN(c3ccnc(N4CCCC4)n3)CC2)cc1,-10,1.78
CCc1c(C)nc(-c2cccc(C)c2)nc1N1CCN(S(=O)(=O)c2ccc(C)cc2)CC1,-16,1.61
COCCn1cnnc1CCn1cnc(-c2ccccc2)c1-c1c[nH]c(C)n1,0,0.05
CC1CCCC(NS(=O)(=O)Cc2ccccc2)C1C (stereo not drawn),-7,0.9
COc1cccc(CN(Cc2ncc(C3OCCO3)s2)C2CCC(O)CC2)c1 (stereo not drawn),-7,0.61
COc1nc(-c2ccc(C(=O)N3CCC(=O)NC[C@@H]3C)cc2)ncc1F,-4,0.41
COc1ccc(C(=O)N2C[C@@H](C(=O)N3CCCC3)[C@H](c3cccnc3)C2)cc1,-1,0.14
CC(=O)c1ccc(N2CCOCC2)c(C[C@@H]2COc3ccccc3C2)c1,-14,2.42
O=C(NC1CC1c1cccc(F)c1)NC1CCCC2OCCC12 (stereo not drawn),-3,0.25

# From ChEMBL document CHEMBL4888484, “Replenishing the malaria drug discovery pipeline: Screening and hit evaluation of the MMV Hit Generation Library 1 (HGL1) against asexual blood stage Plasmodium falciparum ,using a nano luciferase reporter read-out” (2022)
